PubChem BioAssay AID288 (DTP/NCI, 2004)
Results filed as inconclusive are left out. The source holds more than one record for some entries. This is not the full list of results. The source may hold further records. The values listed for one entry are repeated measurements across runs, samples, wells, individuals or studies.

Tested on: BDF1 mice, M5076 sarcoma s.c., survival/tumor T/C
Experiment: NCI In Vivo Anticancer Drug Screen. Data for tumor model Sarcoma M5076 (subcutaneous) in B6D2F1 (BDF1) mice
Method: The antitumor activity of compounds was measured in mice bearing transplantable tumors. Survival or tumor size were measured and the results are expressed as the measurement made in the treated group (T) divided by the measurement made in the vehicle treated control group (C). The tumor model used in this assay is Sarcoma M5076 (subcutaneous) in B6D2F1 (BDF1) mice

O=C1C=CN(C2OC(CO)C(O)C2O)C(=O)C1 (stereo unspecified)
T/C (endpoint: mean tumor weight, dose: 75.0 mg/kg/injection, schedule: Q02DX011 (ip), vehicle: saline, higher = larger tumour): 57 % of control and 93 % of control

CC(C)CC(NC(=O)C(N)C(C)C)C(=O)NC(CCCCN)C(=O)NC(C(=O)O)C1CC(Cl)=NO1 (stereo unspecified)
T/C (endpoint: median survival time, dose: 3.2 mg/kg/injection, schedule: Q01DX010 (ip), vehicle: saline, higher = longer survival): 114 % of control and 154 % of control | T/C (endpoint: median survival time, dose: 6.4 mg/kg/injection, schedule: Q01DX010 (ip), vehicle: saline, higher = longer survival): 117 % of control and 159 % of control

CC/C(=C(/CC)c1ccc(O)cc1)c1ccc(O)cc1
T/C (endpoint: mean tumor weight, dose: 30.0 mg/kg/injection, schedule: Q02DX011 (ip), vehicle: Klucel (hydroxypropylcellulose) (HPC), higher = larger tumour): 17 % of control and 54 % of control

CC(=O)O[C@H]1C(=O)[C@@]2(C)[C@H]([C@H](OC(=O)c3ccccc3)[C@]3(O)C[C@H](OC(=O)[C@H](O)[C@@H](NC(=O)c4ccccc4)c4ccccc4)C(C)=C1C3(C)C)[C@]1(OC(C)=O)CO[C@@H]1C[C@@H]2O
T/C (endpoint: median tumor weight (est.), dose: 10.0 mg/kg/injection, schedule: Q02DX011 (ip), vehicle: Klucel (hydroxypropylcellulose) (HPC), higher = larger tumour): 60 % of control and 91 % of control

CC1(C)N=C(N)N=C(N)N1c1ccc(CCCCc2ccc(S(=O)(=O)F)cc2Cl)c(Cl)c1
T/C (endpoint: median survival time, dose: 15.0 mg/kg/injection, schedule: Q01DX009 (ip), vehicle: other, higher = longer survival): 123 % of control and 156 % of control

O=C1c2c(O)ccc(O)c2C(=O)c2c(NCCNCCO)ccc(NCCNCCO)c21
T/C (endpoint: median tumor weight (est.), dose: 0.5 mg/kg/injection, schedule: Q02DX011 (ip), vehicle: water, higher = larger tumour): 52 % of control and 87 % of control

O=c1[nH]c(=O)n(C2CC(O)C(CO)O2)cc1C(F)(F)F (stereo unspecified)
T/C (endpoint: median tumor weight (est.), dose: 75.0 mg/kg/injection, schedule: Q02DX011 (ip), vehicle: saline, higher = larger tumour): 27 % of control and 55 % of control

COc1cc2c[n+](C)c3c4cc5c(cc4ccc3c2cc1OC)OCO5
T/C (endpoint: mean tumor weight, dose: 20.0 mg/kg/injection, schedule: Q02DX011 (ip), vehicle: Klucel (hydroxypropylcellulose) (HPC), higher = larger tumour): 31 % of control and 68 % of control

O=c1[nH]c(=O)n(C2CC(O)C(CO)O2)cc1F (stereo unspecified)
T/C (endpoint: median tumor weight (est.), dose: 80.0 mg/kg/injection, schedule: Q02DX011 (ip), vehicle: Klucel (hydroxypropylcellulose) (HPC), higher = larger tumour): 2 % of control and 77 % of control

O=C(O)C1(C(=O)O)CCC1.[NH2-].[NH2-].[Pt+2]
T/C (endpoint: median survival time, dose: 12.5 mg/kg/injection, schedule: Q02DX030 (ip), vehicle: water, higher = longer survival): 112 % of control and 161 % of control
